57 compounds from publication PMC4336329 (PLoS ONE, 2015) can be followed below.

Molecules are shown by their SMILES. The whole screen tested about 310,000 compounds, of which about 2,200 (0.71%) showed an effect of 50% or more. The effect is printed as a negative number. The list shows a part of the results.

The target in this assay is human ether-à-go-go-related gene (hERG) potassium channel (human, UniProt Q12809). Description: primary screen, population patch clamp on CHO cells stably expressing hERG.
Chain of human ether-à-go-go-related gene (hERG) potassium channel (Q12809 whole entry, looked up): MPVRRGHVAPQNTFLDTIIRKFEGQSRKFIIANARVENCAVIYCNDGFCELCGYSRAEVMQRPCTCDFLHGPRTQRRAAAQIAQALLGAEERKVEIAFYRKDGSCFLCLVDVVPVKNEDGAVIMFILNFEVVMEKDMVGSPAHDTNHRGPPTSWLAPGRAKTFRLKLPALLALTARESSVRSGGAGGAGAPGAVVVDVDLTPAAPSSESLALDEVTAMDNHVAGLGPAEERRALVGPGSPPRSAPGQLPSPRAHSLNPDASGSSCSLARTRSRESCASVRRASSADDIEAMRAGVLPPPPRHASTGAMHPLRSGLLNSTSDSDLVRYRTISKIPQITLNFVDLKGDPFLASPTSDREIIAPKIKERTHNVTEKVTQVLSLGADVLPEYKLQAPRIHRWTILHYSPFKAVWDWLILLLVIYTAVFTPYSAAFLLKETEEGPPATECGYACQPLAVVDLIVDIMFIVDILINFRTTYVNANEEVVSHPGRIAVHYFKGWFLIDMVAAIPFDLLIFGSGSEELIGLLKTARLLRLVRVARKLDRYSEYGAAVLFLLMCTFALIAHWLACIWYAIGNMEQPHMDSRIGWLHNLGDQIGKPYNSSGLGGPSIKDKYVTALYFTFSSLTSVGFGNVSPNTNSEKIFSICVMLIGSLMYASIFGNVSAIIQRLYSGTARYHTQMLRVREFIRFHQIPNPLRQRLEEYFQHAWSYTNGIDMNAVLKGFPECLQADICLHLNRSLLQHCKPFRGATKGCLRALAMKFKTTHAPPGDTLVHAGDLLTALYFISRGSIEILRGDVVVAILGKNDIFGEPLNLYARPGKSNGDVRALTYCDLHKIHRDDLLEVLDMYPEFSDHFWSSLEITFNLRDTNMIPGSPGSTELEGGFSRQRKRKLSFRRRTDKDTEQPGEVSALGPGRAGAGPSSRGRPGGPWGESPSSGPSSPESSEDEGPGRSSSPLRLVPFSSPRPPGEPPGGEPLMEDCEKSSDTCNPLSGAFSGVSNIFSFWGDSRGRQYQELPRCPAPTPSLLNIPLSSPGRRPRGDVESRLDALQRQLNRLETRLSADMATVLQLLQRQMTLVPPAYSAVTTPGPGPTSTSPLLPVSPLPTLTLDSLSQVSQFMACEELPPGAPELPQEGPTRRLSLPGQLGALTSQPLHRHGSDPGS
As for `Cc1ccc2cc(CCNC(=O)c3ccc4c(c3)OCO4)c(=O)[nH]c2c1C`, the “hERG current change (%, negative = inhibition) at 1uM” value worked out at 4.03%. Under `CCOC(=O)C1=C(N)N(c2ccccc2Oc2ccccc2)C(=O)C1` stands 10.2%; under `O=S(=O)(CCc1nc2ccccc2o1)c1ccc(Cl)cc1`, 7.52%; under `O=c1ccn(Cc2ccccc2)c(=O)n1Cc1ccccc1`, -1.57%.

As to `COc1ccc(N2CCN(C(=O)CSc3ncnc4scc(-c5ccc(C)cc5)c34)CC2)cc1`, the “hERG current change (%, negative = inhibition) at 1uM” value amounted to 8.4%. As to `CCOc1cc(-c2nc(C)c(C(C)=O)n2O)ccc1OCC(=O)Nc1ccc(F)cc1`, the “hERG current change (%, negative = inhibition) at 1uM” value is listed as 3.55%. In the case of `O=C1C2C3C=CC(CC3)C2C(=O)N1c1nccs1` (stereo not drawn) it was 10.1%; in that of `CC(C)(C)C(=O)CSc1nc(N)cc(=O)[nH]1`, 14.2%.

Take `Cc1nn(Cc2ccc(C(=O)NN)cc2)c(C)c1Cl`: the “hERG current change (%, negative = inhibition) at 1uM” value was 12.7%. Under `NC(=O)c1ccnc2c(O)cccc12.O=C(O)C(F)(F)F` stands -1.81%; under `CC(=O)NS(=O)(=O)c1ccc(NC(=O)c2cc(-c3cccs3)nc3ccccc23)cc1`, 13.3%; under `Cc1ccc(NC(=O)CCCC(=O)OC(C)C(=O)c2ccccc2)cc1` (stereo not drawn), 7.54%. For `COc1ccc2c(c1)C(=O)N(c1ccccc1)C(=O)C2`, the “hERG current change (%, negative = inhibition) at 1uM” value was found to be 9%. In the case of `c1ccn2c(Cc3nnc4ccccn34)nnc2c1` it was 5.87%.

Turning to `CCCCOc1ccc(C(=O)Nc2ccc(OCC(=O)N3CCOCC3)cc2)cc1`, the “hERG current change (%, negative = inhibition) at 1uM” value is listed as 20.9%.

Turning to `CCOCCCNC(=S)N1CCC(NC(=O)c2ccco2)CC1`, the “hERG current change (%, negative = inhibition) at 1uM” value is -1.87%.

Consider `CC(=O)Nc1ccc(S(=O)(=O)Nc2ncccn2)cc1`, for which the “hERG current change (%, negative = inhibition) at 1uM” value was found to be 0.942%. As for `CC(C)CC(CCc1ccccc1)OS(N)(=O)=O` (stereo not drawn), the “hERG current change (%, negative = inhibition) at 1uM” value is 11.7%. For `COc1ccc(Cc2nnc(SCC(=O)N3CCc4ccccc4C3)o2)cc1`, the “hERG current change (%, negative = inhibition) at 1uM” value stood at 3.32%. In the case of `CCn1c(=S)[nH]c2nc3c(cc2c1=O)CCCC3` it was 1.12%; in that of `O=[N+]([O-])c1ccc(/C=C/c2nc3ccc([N+](=O)[O-])cc3[nH]2)cc1`, 13.6%; in that of `O=c1c(CN2CCN(Cc3ccccc3F)C(CCO)C2)coc2ccccc12` (stereo not drawn), 4.79%. On to `Cc1cccc(OCc2nnc(SCC(=O)O)n2Cc2ccccc2)c1`, for which the “hERG current change (%, negative = inhibition) at 1uM” value was found to be 12.7%.

`COc1ccc(C2=CC(=O)C[C@H](c3ccc4c(c3)OCO4)C2)cn1`: the “hERG current change (%, negative = inhibition) at 1uM” value is on record as 14.8%. Under `COc1ccc(N2CCN(CCCNC(=O)c3ccc(CS(=O)(=O)c4ccc(Cl)cc4)o3)CC2)cc1` stands -71.2%. `CC(C)CC(=O)NC(=S)Nc1ccccc1C(=O)Nc1ccccc1`: the “hERG current change (%, negative = inhibition) at 1uM” value was found to be 12.1%.

For the compound `C/C(=N/NC(=O)c1ccc(-c2ccccc2)cc1)c1cccc(O)c1`, the “hERG current change (%, negative = inhibition) at 1uM” value amounted to 14.4%. In the case of `CC(=O)Nc1ccc(NC(=O)C2CCN(C(=O)C3CC(=O)N(c4ccc(C)cc4)C3)CC2)cc1` (stereo not drawn) it was 8.95%. Consider `CCNC(=S)Nc1cc(C)ccn1`, for which the “hERG current change (%, negative = inhibition) at 1uM” value is listed as 15.8%. `Cc1cn(C2CC3OCC3O2)c(=O)[nH]c1=O` (stereo not drawn): the “hERG current change (%, negative = inhibition) at 1uM” value stood at 13.9%.

With `CCc1c(C)nc(N)nc1N1N=C1SCC(=O)OC`, the “hERG current change (%, negative = inhibition) at 1uM” value is 3.22%. `CC(=O)Nc1ccc(S(=O)(=O)Nc2ccc(N3CCOCC3)cc2)cc1`: the “hERG current change (%, negative = inhibition) at 1uM” value was determined as 11.5%.

Regarding `Cc1cccc(C)c1NC(=S)N(Cc1cccs1)C1CCCC1`, the “hERG current change (%, negative = inhibition) at 1uM” value is given as 7.2%. As to `CC(=O)Nc1nonc1-c1nc2ccccc2n1N(C(C)=O)C(C)=O`, the “hERG current change (%, negative = inhibition) at 1uM” value stood at 11.2%. For the compound `Cc1cc(C)n(C(C[N+](=O)[O-])c2ccc(Cl)cc2)n1` (stereo not drawn), the “hERG current change (%, negative = inhibition) at 1uM” value is recorded as 2.43%. As to `COCC1CCCN(C(=O)c2cc(COc3ccc4ncccc4c3)on2)C1` (stereo not drawn), the “hERG current change (%, negative = inhibition) at 1uM” value is on record as 12.6%. Consider `O=C(O)C1C2CCC(O2)C1C(=O)Nc1ccc(Cl)cc1F` (stereo not drawn), for which the “hERG current change (%, negative = inhibition) at 1uM” value stood at 7.65%. Regarding `COc1ccc(S(=O)(=O)N(C)C)cc1NC(=O)CCNC(=O)c1ccco1`, the “hERG current change (%, negative = inhibition) at 1uM” value was determined as 14.3%. Under `COc1ccc(NC2CC(=O)N(c3ccccc3)C2=O)cc1` (stereo not drawn) stands -7.46%; under `CN1CCN(S(=O)(=O)c2cccc(C(=O)N(C)CC(=O)Nc3ccc(F)c(F)c3F)c2)CC1`, 14.4%.

With `Cc1cccc(NC(=O)C2CC(=O)NC(Nc3nc4ccccc4s3)=N2)c1` (stereo not drawn), the “hERG current change (%, negative = inhibition) at 1uM” value turned out to be 13.7%. In the case of `CCC(=O)c1ccc(OCC(=O)c2ccc3c(c2)NC(=O)CO3)cc1` it was 10.9%; in that of `O=C(Cn1ncc2c([nH]c3ccccc32)c1=O)N1CCN(c2ccc(F)cc2)CC1`, 35.9%; in that of `Cc1ccc(-n2ccnc2SCC(=O)c2c(N)n(C3CC3)c(=O)[nH]c2=O)cc1C`, 10.2%. Consider `CN(C)c1nnnn1-c1ccc(Oc2ncc(C(F)(F)F)cc2Cl)cc1`, for which the “hERG current change (%, negative = inhibition) at 1uM” value is on record as 7.84%. In the case of `COCc1cc(C)nc(SCc2nc3ccccc3c(=O)[nH]2)c1C#N`, the “hERG current change (%, negative = inhibition) at 1uM” value is reported as 10.1%. With `O=C1C=C(O)C(n2cncn2)C(c2cc(F)ccc2F)C1` (stereo not drawn), the “hERG current change (%, negative = inhibition) at 1uM” value is 16.2%. Consider `CCCCCOc1ccc(NC(=O)CCCC(=O)O)cc1`, for which the “hERG current change (%, negative = inhibition) at 1uM” value stood at 6.65%. Take `Cc1ccc(S(=O)(=O)N2CCC(C(=O)Nc3ccc(S(=O)(=O)N4CCCC4)cc3)CC2)cc1`: the “hERG current change (%, negative = inhibition) at 1uM” value stood at 3.25%. Under `Nc1ccc(C(=O)Nc2ccc3nc(-c4ccncc4)[nH]c3c2)cc1` stands 10.7%. In the case of `CCCCC(NC(=O)CCc1c(C)c2cc3c4c(oc3c(C)c2oc1=O)CCCC4)C(=O)O` (stereo not drawn) it was 9.64%.

Turning to `COc1ccc(C(=O)NC2CCCCCC2)cc1S(=O)(=O)Nc1ccc(Br)cc1`, the “hERG current change (%, negative = inhibition) at 1uM” value is on record as -5.35%. In the case of `CCOC(=O)N1CCc2c(sc(NC(=O)Cc3ccccc3)c2C(=O)c2ccc(OC)cc2)C1` it was 13.5%; in that of `Cc1ccc(S(=O)(=O)NC(=O)NN2CCCCCC2)cc1`, 5.75%. Under `Cn1cnc([N+](=O)[O-])c1Sc1ccc([N+](=O)[O-])cc1` stands -28.5%. `CCO/C=C1\C(=O)N(c2ccccc2)C(=O)c2ccccc21`: the “hERG current change (%, negative = inhibition) at 1uM” value was 11.7%. In the case of `CCOc1cc(C#N)ccc1OCC(=O)N1CCc2ccccc2C1` it was -4.72%.
